# Measurements from PubChem BioAssay AID493208 (National Center for Advancing Translational Sciences (NCATS), 2011).
# Hit rate of the full screen: of about 44,000 compounds, about 340 (0.77%) were called active. Not shown: some 5% with an inconclusive outcome. Calls follow the shape of the dose curve; as a rule, active = well fitted inhibition curve with a large enough effect; inconclusive = small, poorly fitted or top-dose-only effect; inactive = flat fitted curve, though single readings scatter. Some of the results follow.
# Experiment: Acumen qHTS Assay for Inhibitors of the mTORC1 Signaling Pathway in MEF (Tsc2-/-, p53-/-) Cells: Sytravon; also: nearly all actives have a fitted effect of over 50% in size;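 as to activity change, negative = inhibition: plate controls were DMSO for no effect and rapamycin for full effect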
# Conditions: phospho-rpS6 immunofluorescence/PI, 24 h; series mostly up to 38.3 µM; activity change, negative = inhibition: at the top concentration
# Method in brief: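 Compounds act on Tsc2-/-, p53-/- fibroblasts carrying an empty vector for 24 h before fixation and dual staining for phospho-S6 and DNA (propidium iodide). Values are percentages of cells above a rapamycin-defined pS6/PI threshold.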
# Potency is read from the fitted curve at half-maximal effect.
SMILES,"activity change, negative = inhibition",Potency
COc1ccccc1OCc1nc(C#N)c(NCc2ccc(C)cc2)o1,inactive: -2.78%,
Cn1c(=O)c2sccc2n2c(CCCC(=O)NC3CCCCC3)nnc12,inactive: 2.19%,
Cc1ccc(Cl)cc1N1CCN(S(=O)(=O)c2cc(Br)cc3c2N(C(=O)C2CC2)CC3)CC1,inactive: -12%,
COc1ccc(-c2nn(-c3ccccc3)cc2C2NC(=O)NC(C)=C2C(=O)OC(C)C)cc1Cl (configuration not stated),inactive: 4.85%,
CC(=O)Nc1ccc(NC(=O)C(Cc2ccccc2)NS(=O)(=O)c2ccc3c(c2)oc(=O)n3C)cc1 (configuration not stated),inactive: -3.89%,
CCOC(=O)CC(NC(=O)CCc1c(C)nc2c(c1C)c(=O)n(C)c(=O)n2C)c1ccc(OCC)c(OC)c1 (configuration not stated),inactive: -0.212%,
CC(C)c1ccc(NS(=O)(=O)c2ccc3[nH]cc(C(=O)NCCc4ccccc4)c(=O)c3c2)cc1,inactive: -11.6%,
CCOC(=O)c1cc(-c2ccc(F)cc2)n(CCC(=O)Nc2nc3ccc(OC)cc3s2)c1C,inactive: -12.6%,
COc1ccc(S(=O)(=O)N(CC(=O)Nc2cc(Cl)ccc2C)Cc2ccccc2)cc1OC,inactive: 18%,
Cc1ccc(-n2nc(C)c3c(C)cc(=O)n(CC(=O)NC(C)c4ccccc4)c32)cc1 (configuration not stated),inactive: -6.18%,
CCOc1cc(-c2ccc(OC(=O)c3ccc(OC)cc3)c(OC)c2)cc(=O)c2c(C)oc(C)c12,inactive: -3.46%,
CCn1nc(C)c2c(-c3ccccc3)cc(=O)n(C(C)C(=O)NCCc3ccc(OC)c(OC)c3)c21 (configuration not stated),inactive: 0%,
O=S(=O)(c1ccc(Cl)cc1)c1nnn2c1nc(NCc1ccc3c(c1)OCO3)c1sccc12,inactive: 3.32%,
Cc1ccc(N(CC(=O)Nc2cc(C)ccc2C)S(=O)(=O)c2c(C)noc2C)cc1,inactive: -3.22%,
CCCCN(CC)CCNC(=O)C1CCCN(c2ncnc3onc(C)c23)C1 (configuration not stated),inactive: 0.365%,
COc1ccc(-n2c(SCC(=O)c3ccccc3)nc3c([nH]c4ccccc43)c2=O)cc1,inactive: -5.57%,
CCOc1ccccc1NC(=O)C1CCN(S(=O)(=O)c2ccc3c(c2)CCCN3C(C)=O)CC1,inactive: -0.758%,
Cc1ccc(COC(=O)c2[nH]c3c(c2C)C(=O)CC(c2ccc(N(C)C)cc2)C3)cc1 (configuration not stated),inactive: -4.64%,
CC(=O)c1ccc(NC(=O)c2ccc(-n3cnnc3)cc2)cc1,inactive: -6.02%,
CCC(=O)N1c2ccccc2CC1C(=O)NCc1ccc(N(C)C)cc1 (configuration not stated),inactive: 4.33%,
CCOc1ccc(C(=O)c2oc3ccccc3c2NC(=O)c2cc(-c3ccc(Cl)cc3)on2)cc1,inactive: 0.438%,
COc1ccc(-c2nnc(SCC(=O)N(C)C3CCCCC3)o2)cc1OC,inactive: 1.4%,
O=c1oc2c3c(ccc2c2ccccc12)OCN(Cc1ccccc1Cl)C3,inactive: 2.25%,
O=S(=O)(NCC(c1ccco1)S(=O)(=O)c1cccs1)c1ccc(Cl)cc1 (configuration not stated),,active: 18.5 µM

SMILES,"activity change, negative = inhibition",Potency
CN(Cc1ccccc1)c1ncnc2c1nnn2C,inactive: -20.3%,
COC(=O)c1sccc1S(=O)(=O)N(CC(=O)Nc1ccccc1F)c1ccccc1,inactive: -8.81%,
Cc1ccc(CSCCC(=O)NCc2ccc(F)cc2Cl)cc1,inactive: -22.1%,
Cc1ccc(C(=O)NCCc2ccc(S(N)(=O)=O)cc2)cc1-n1cnc2cccnc21,inactive: -5.73%,
Cc1cccc(C(=O)n2nc(-c3cccnc3)nc2NCc2ccccc2)c1,inactive: -9.81%,
CCn1cc(C(=O)NCCCOC)c(=O)c2cc(S(=O)(=O)N3CCCC3)ccc21,inactive: -6.99%,
Cc1ccc(NC(=O)Nc2ccccc2OCc2cc(=O)n3ccccc3n2)c(Cl)c1,inactive: -6.34%,
O=C(CCCCn1c(=O)c2ccccc2n(CC(=O)Nc2ccc(F)cc2F)c1=O)NCCc1ccccc1,inactive: 2.34%,
COC(=O)c1c(NC(=O)Cc2coc3ccc(C(C)C)cc23)sc2c1CCC2,inactive: -19.8%,
CCOc1ccccc1NC(=O)CCNS(=O)(=O)c1cccc2nonc12,inactive: 0.116%,
CCOc1ccccc1NC(=O)C1CCCN1S(=O)(=O)c1ccc2c(c1)C(C)(C)C(=O)N2C (configuration not stated),inactive: -1.59%,
COc1cc(C(=O)Nc2ccc3c(c2)N(C2CCCC2)C(=O)c2ccccc2S3)cc(OC)c1OC,inactive: 0.279%,
COc1ccc(NC(=O)N2CCOc3ccc(Cl)cc32)cc1,inactive: 2.37%,
Cc1cc(NC(=O)c2ccc3c(c2)OCCO3)cc(-c2nc3ccccc3o2)c1O,inactive: -10.8%,
CCOC(=O)c1c(NC(=O)c2cc3nc(-c4ccc(Br)cc4)cc(C(F)(F)F)n3n2)sc(C(C)=O)c1C,inactive: -2.56%,
CCC(C(=O)NCc1ccc(OC)c(OC)c1)n1nc(C)c2c(C)n(-c3ccc(C)cc3)nc2c1=O (configuration not stated),inactive: -2.62%,
COc1ccc(Cc2nc3c4cnn(-c5ccccc5F)c4ncn3n2)cc1,inactive: -3.03%,
COc1ccc(Cl)cc1N(C)C(=O)c1cc2c(=O)oc3ccc(C)cc3c2s1,inactive: -8.76%,
CCCCNC(=O)c1cc(-c2ccc(OC)cc2)nc2n[nH]c(-c3cccc([N+](=O)[O-])c3)c12,inactive: -5.36%,
CCc1ccccc1NC(=O)CN1CCCN(Cc2cc(C)ccc2C)S1(=O)=O,inactive: -14.1%,
CCOC(=O)c1ccccc1NC(=O)CN1CCCN(Cc2cccc(Cl)c2)S1(=O)=O,inactive: 1.53%,
CCc1ccc(NC(=O)CCNS(=O)(=O)c2ccc3c(c2)oc(=O)n3C)cc1,inactive: 0.305%,
Cc1ccc(-n2nc(C)c3c(C(=O)NCCc4ccccc4)cc(C)nc32)cc1,inactive: 4.3%,
